PMC4336329 (PLoS ONE, 2015)
In all, about 310,000 compounds went through this assay and about 14,000 (4.5%) showed an effect of 50% or more. Effects have a minus sign here. This is one part of the list.

molecular target: human ether-à-go-go-related gene (hERG) potassium channel (human, UniProt Q12809); test: primary screen, population patch clamp on CHO cells stably expressing hERG
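Further: peak tail current of the secondary pulse compared with the same well before compound.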

human ether-à-go-go-related gene (hERG) potassium channel, sequence (Q12809 whole entry, looked up): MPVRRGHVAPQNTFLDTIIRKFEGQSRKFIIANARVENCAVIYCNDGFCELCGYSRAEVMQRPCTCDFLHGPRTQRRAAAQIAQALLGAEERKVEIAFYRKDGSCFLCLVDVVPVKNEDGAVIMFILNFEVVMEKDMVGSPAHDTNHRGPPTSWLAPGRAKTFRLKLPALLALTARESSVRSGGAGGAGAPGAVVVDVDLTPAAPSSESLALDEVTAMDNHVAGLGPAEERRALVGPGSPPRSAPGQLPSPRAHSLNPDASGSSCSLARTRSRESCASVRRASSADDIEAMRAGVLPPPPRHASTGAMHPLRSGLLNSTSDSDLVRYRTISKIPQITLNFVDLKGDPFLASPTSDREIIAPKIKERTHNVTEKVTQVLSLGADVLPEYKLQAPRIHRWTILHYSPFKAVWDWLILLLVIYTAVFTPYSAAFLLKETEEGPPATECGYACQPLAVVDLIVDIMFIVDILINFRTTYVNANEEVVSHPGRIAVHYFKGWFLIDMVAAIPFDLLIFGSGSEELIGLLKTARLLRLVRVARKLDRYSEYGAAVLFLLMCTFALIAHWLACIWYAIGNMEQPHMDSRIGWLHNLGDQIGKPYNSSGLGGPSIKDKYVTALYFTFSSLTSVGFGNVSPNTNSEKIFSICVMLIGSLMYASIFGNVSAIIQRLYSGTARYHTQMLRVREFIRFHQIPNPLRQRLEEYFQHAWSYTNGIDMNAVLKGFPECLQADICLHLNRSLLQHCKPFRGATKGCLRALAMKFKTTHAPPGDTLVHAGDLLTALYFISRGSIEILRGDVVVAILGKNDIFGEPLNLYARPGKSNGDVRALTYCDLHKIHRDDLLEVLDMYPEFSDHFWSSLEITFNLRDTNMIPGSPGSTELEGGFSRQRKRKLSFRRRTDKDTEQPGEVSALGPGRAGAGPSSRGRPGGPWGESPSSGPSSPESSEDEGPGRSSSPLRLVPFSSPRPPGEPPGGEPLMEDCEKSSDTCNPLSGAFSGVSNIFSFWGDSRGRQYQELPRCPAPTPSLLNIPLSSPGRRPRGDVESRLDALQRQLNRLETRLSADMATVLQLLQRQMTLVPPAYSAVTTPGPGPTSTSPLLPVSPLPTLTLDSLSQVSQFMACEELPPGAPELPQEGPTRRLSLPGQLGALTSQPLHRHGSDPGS

Compound	hERG current change (%, negative = inhibition) at 10uM [%]
COC(=O)c1cc(-c2c(C)oc3cc(OC)ccc3c2=O)c(C)o1	6.28
O=C1C2CCCN2C(c2ccc(Cl)c(Cl)c2)N1c1ccccn1 (centres unmarked)	-10
CCNC(=O)COC(=O)c1ccc(S(=O)(=O)N2CCCCCC2)cc1	-10.3
COc1ccc(N2CC(C(=O)N/N=C/c3ccc([N+](=O)[O-])cc3)CC2=O)cc1 (centres unmarked)	-59.5
CC1CCC2C(=O)N(c3cccc(C(=O)Nc4ccccc4Cl)c3)C(=O)C2C1 (centres unmarked)	16.8
O=[N+]([O-])c1c(C(Cl)Cl)nn(-c2ccccc2)c1N1CCOCC1	-6.68
CCN(C(=O)c1cn(CC)c(=O)c2cc(OC)c(OC)cc12)c1ccccc1C	6.58
COCCn1c(SCC(=O)N2CCCCC2)nc2cccnc21	-1.5
Fc1cc(F)c2nc(N3CCOCC3)sc2c1	5.05
CCOc1ccc(S(=O)(=O)Nc2cccc(C(=O)NCC(c3ccccc3)N(C)C)c2)cc1 (centres unmarked)	-12
Br.COc1ccc(-c2ccncc2)cc1OC	11.9
CCOC(=O)C1CCN(C(=O)CN2C(=O)C(C(C)C)Oc3ccccc32)CC1 (centres unmarked)	-12.2
COc1ccc(NC(=O)c2ccc3ncsc3c2)c2ccccc12	4.56
OC(CNCCCCNCC(O)C(F)(F)F)C(F)(F)F (centres unmarked)	19.8
COc1ccc(CCNC(=O)C2CCCN2C(=O)Nc2cccc(C(C)=O)c2)cc1OC (centres unmarked)	-3.26
COCCn1c(=O)c2c(nc3n2CC(C)CN3Cc2ccccc2)n(C)c1=O (centres unmarked)	-47.6
Cn1c(SCC(=O)NCc2cccs2)nnc1-c1ccc(S(=O)(=O)N2CCCC2)cc1	-5.73
Cc1cc(NC(=O)CN(C)CCOc2ccccc2)ccc1Br.O=C(O)C(=O)O	5.22
COC(=O)[C@H](CC(C)C)NC(=O)Nc1ccc(S(N)(=O)=O)cc1	23.3
COc1ccc(Cc2nnc(SCC(=O)Nc3cc(Cl)ccc3OC)[nH]c2=O)cc1	1.24
CCSc1nc2sc3c(c2c2[n+]1CC(CBr)O2)CCCC3.[Br-] (centres unmarked)	-0.684
CCc1nc(NCCN2CCOCC2)c2oc3ccccc3c2n1.Cl	-28.2
Cn1ncc([N+](=O)[O-])c1C(=O)Nc1cccc2ccccc12	-7.54

Compound	hERG current change (%, negative = inhibition) at 10uM [%]
CCCCN(C(=S)Nc1ccc(F)cc1)c1c(N)n(CCC)c(=O)[nH]c1=O	10.8
CCCn1c(=O)c2[nH]cnc2n(-c2ccccc2C)c1=O	4.87
COc1ccc(S(=O)(=O)N2CCN(C)CC2)c(C)c1	3.56
Cc1cccc(CNC(=O)CCn2ccc3cc(S(=O)(=O)N4CCCC4)ccc32)c1	-19.5
CCC1Oc2ccccc2N(Cc2ccccc2C)C1=O (centres unmarked)	-25.5
Cc1csc(SCC(=O)NC(C)c2ccc(F)cc2)n1 (centres unmarked)	10.3
Cc1ccc(NC(=O)c2nccnc2C(=O)O)cc1C	9.19
O=C(COC(=O)c1ccccc1O)Nc1ccc(OC(F)F)cc1	2.74
Cc1cc(C)cc(N(CC(=O)NCC2CCCO2)S(=O)(=O)c2c(C)noc2C)c1 (centres unmarked)	-5.66
CCCCN(C(=O)CCC(=O)O)C1CC(=O)N(c2ccc(OCCC)cc2)C1=O (centres unmarked)	20.7
COC(=O)CN1C(=O)C2(C(C#N)=C(N)Oc3c2c(C)nn3-c2ccccc2)c2ccccc21 (centres unmarked)	-12.3
O=C(CN1CCCC1=O)NCCc1ccccc1	7.17
COC(=O)c1sccc1NC(=O)C1C2C=CC(C2)C1C(=O)O (centres unmarked)	12.3
COc1cc2c(cc1OC)[C@@H]1C(=O)c3ccc4c(c3O[C@@H]1CO2)C[C@H](C(C)C)O4	10.6
COCCNC(=S)N/N=C(\C)c1ccccc1O	5.51
COc1ccc(NC(=O)Nc2ccc(N3CCOCC3)c3nonc23)c(OC)c1	20.3
CCN1CCN(C(=O)c2cc(-c3ccco3)nc3ccccc23)CC1	-38.9
O=C(O)c1cccc(N2C(=O)c3cccc(Oc4ccc(Cl)cc4)c3C2=O)c1	16.2
COc1ccc(CN(C)CC(O)COc2ccc(-c3ccccc3)cc2)cc1OC (centres unmarked)	-69.4
O=C1/C(=C/c2ccccc2)CCCc2ccccc21	9.66
COc1ccc(C2CC(=O)N3CN(c4ccc(C)c(Cl)c4)CSC3=C2C#N)cc1OC (centres unmarked)	5.57
CCOC(=O)c1c(NC(=O)CN2C(=O)NC(C)(c3ccc(OC(F)F)cc3)C2=O)sc(C)c1C (centres unmarked)	4.13
Cc1cc(=O)nc2c3ccccc3n(CC(=O)NC(C)c3ccc4c(c3)OCCO4)n12 (centres unmarked)	8.95

Compound	hERG current change (%, negative = inhibition) at 10uM [%]
CCOc1ccccc1-n1c(SCC(=O)Nc2ccc(CC)cc2)nc2n[nH]c(C)c2c1=N	-1.89
Clc1ccc2nc(N3CCNCC3)nc(-c3ccccc3)c2c1	-59.1
CCCCNC(=O)NCC(=O)Nc1ccc(F)c(F)c1	7.8
CCOC(=O)c1cc(-c2ccccc2)sc1NC(=O)C(C)OC(=O)c1cccnc1Cl (centres unmarked)	-3.24
C[C@H]1[C@H](c2ccccc2)C[C@@H](C(=O)O)C1(C)C	12.2
CCOC(=O)C1=C(COc2ccccc2)NC(=O)NC1c1ccc(Cl)cc1 (centres unmarked)	-21.7
O=C(NC(Cc1ccccc1)C(=O)O)/C(=C/c1cccc([N+](=O)[O-])c1)NC(=O)c1ccco1 (centres unmarked)	-11.4
COCCn1c(-c2ccc(Cl)cc2)cnc1SCC(=O)NCc1cccs1	-37.6
COc1cccc(C2(C#N)CCN(C)CC2)c1	10.5
COCCn1c(SCC(=O)N2CCCCCC2)nc2c([nH]c3ccccc32)c1=O	-5.06
CCOC(=O)c1c(CC(C)C)csc1NC(=O)COC(=O)c1cc(OC)c(OC)cc1[N+](=O)[O-]	27.5
Cc1ccc(C(=O)NCCc2ccccc2)cc1N1CCCC1=O	17.7
O=C(CCl)Oc1ccc2occ(C(=O)c3cccs3)c2c1	0.872
COCCNC(=O)C(OC(=O)CC1Sc2ccccc2NC1=O)c1ccncc1 (centres unmarked)	-7.65
CCc1ccc(C2CC(=O)Nc3c2c(=O)nc2c(C)cccn32)cc1 (centres unmarked)	10.1
C=CCn1c(O)c(/C(CC)=N/NC(=S)Nc2ccccc2)c(=O)[nH]c1=O	11.8
O=c1[nH][nH]c(C(F)(F)F)c1C=Nc1cccc(Cl)c1	7.39
Cc1ccc2ccccc2c1NC(=O)c1ccco1	-0.144
CN(C)S(=O)(=O)N1CCC(Oc2ccc(C(=O)NCC(C)(C)CO)cc2)CC1	5.9
COc1cc(NC(=O)C2CCN(S(=O)(=O)c3cnc[nH]3)CC2)cc(OC)c1OC	-1.88
Cc1ccc(Cl)c(NC(=O)CSc2n[nH]c(=O)n2C2CC2)c1Cl	8.34
O=C(Nc1nnc(SCc2ccc(F)cc2)s1)C1CC(=O)N(Cc2ccccc2)C1 (centres unmarked)	-1.89
N#Cc1c(SCC(=O)Nc2ccccc2)nsc1SCC(=O)Nc1ccccc1	3.79

Compound	hERG current change (%, negative = inhibition) at 10uM [%]
CCN(c1ccccc1)S(=O)(=O)c1c[nH]c2ccc([N+](=O)[O-])cc12	9.52
COc1ccc(OC)c(C(=O)C2COC(=O)C2)c1 (centres unmarked)	15.8
CSc1ccccc1NC(=O)COc1ccc(Cl)cc1Cl	-0.82
COc1ccc(C(=O)N/N=C(\C)CC(=O)Nc2ccc(N(C)C)cc2)c(OC)c1	9.97
CCCn1c(NCc2cccc(OC)c2O)nc2ccccc21	-18.1
O=C(CNC(=O)c1cccc(Cl)c1)N/N=C/C=C/c1ccccc1	-11.6
CCc1nnc(NC(=O)CN2CCN(Cc3cccc(Cl)c3)CC2)s1	-8.15
CCc1ccc(CN2CCN(c3ncccn3)CC2)cc1	-10.1
CC(C)c1nccn1CCC(=O)O.Cl	11.7
O=[N+]([O-])c1ccccc1CSc1nc2ccccc2o1	13.9
O=C1c2ccccc2NC(c2ccco2)N1NS(=O)(=O)c1ccccc1 (centres unmarked)	7.89
O=C(CN1CCN(S(=O)(=O)c2ccc(F)cc2)CC1)NC1CCCC1	-8.45
COc1ccccc1-c1nnc2sc(COc3ccccc3)nn12	-2.14
Cc1ccc(NC(=O)CN2CCc3ccccc3C2)cc1F	3.07
Fc1ccc(N/N=C/c2ccncc2)c(F)c1	-9.23
O=C1CSC(=S)N1/N=C/C=C/c1ccccc1	12.5
CCC(C)N1C(=O)NC(=O)C2(Cc3cc(C)ccc3N(C)C2)C1=O (centres unmarked)	3.02
Cc1cc(=O)[nH]c(SCC(=O)NC(c2ccccc2)c2ccccc2)n1	1.89
COc1ccc(/C=C2\SC(=O)N(CCNC(=O)C3CSC4(C)CCC(=O)N34)C2=O)cc1 (centres unmarked)	-27
CCN(CC)C(=O)CN1C(=O)C2CC=C(Cl)CC2C1=O (centres unmarked)	-3.4
